# The supplement of paper PMC10338343
# ± gives the standard deviation. Only a part is listed here, and it is no random draw.
# System: MIWI (PIWIL1) piRISC loaded with L1MC piRNA (30 nt)
# Experiment: pre-steady-state target cleavage rate (min^-1); MIWI and MILI are mouse PIWI proteins and EfPiwi is from a freshwater sponge; tags in brackets are library labels; higher = faster piRNA-guided slicing of the target
# Details: guide: L1MC piRNA 5'p-UAACUAAAUACUAUGCAAGCUGUAGGUCCU
# Summary of the method: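 The pre-steady-state cleavage rate came from a burst-and-steady-state fit to pooled data from three Cleave-'n-Seq trials, in which uncleaved targets were sequenced and normalised to depth and to weakly complementary targets. Each reaction held 0.1 nM transcribed, DNA-blocked target RNA library and 1 nM active affinity-purified piRISC carrying one synthetic guide, with or without 500 nM GTSF1 partner protein, in HEPES–potassium acetate buffer at 33 °C for 0–8 or 0–960 min. k3 was capped at 0.0001 min^-1.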
# [1] = auxiliary factor: 500 nM mouse GTSF1
# [2] = auxiliary factor: none (no GTSF1)
Sequence,pre-steady-state target cleavage rate [1],pre-steady-state target cleavage rate [2]
AGGUGCUACAGCUUGCAUAGUAUUUAGUAA,0.603 ± 0.067,0.0325 ± 0.006
AGGACCUACAGCUUGCAAAGUAUUUACUUA,0.447 ± 0.045,0.0225 ± 0.005
UCCUCCUACAGCUUGCAUACUAAUUAGUUA,0.191 ± 0.018,0.00644 ± 0.0023
UCCUGCUACAGCUUGCAUAGUAUUUACGUUA,0.695 ± 0.05,0.0244 ± 0.0065
UGGACCUACAGCUUGCAUAGUAUUUUCAUA,0.185 ± 0.029,0.00833 ± 0.0025
UCCACCUUCAGCUUGCAAAGUAUUUAGUUA,1.17 ± 0.038,0.0305 ± 0.0063
UCCUGGAACAGCUUGCAAUGUAUUUAGUUA,0.265 ± 0.02,0.00723 ± 0.0039
UCCUGGAUCAGCUUGCAUAGUAUUUAUGUUA,0.355 ± 0.025,0.0152 ± 0.0034
UCCUGCUACAGCUUGCAAAGUAUUUAGUUA,0.619 ± 0.037,0.03 ± 0.0055
UCCACCUACAGCUGGCAUAGUAUUUAGUUA,1.05 ± 0.039,0.0213 ± 0.0035
AGGACCUACAGCUUGCAUAUUAUUUAGUUA,1.23 ± 0.074,0.0773 ± 0.017
UCCUGGAUGUGCUUGCAUAGUAUUUACUUA,0.114 ± 0.018,0.0211 ± 0.0042
UCCUGGAUGAGCUUGCAUAGAAUUUAGUUA,0.204 ± 0.02,0.0171 ± 0.0057
UCCAGCUACAGCUUGCAUAGUAUUUUGUUA,0.745 ± 0.034,0.0287 ± 0.0046
UCCUGCUACACCUUGCAUAGUAUUUUGUUA,0.374 ± 0.079,0.0162 ± 0.0029
UCCUGGAUGAGCUUGCAUAGUAUUUUGAUA,0.258 ± 0.05,0.00935 ± 0.0036
UCGACCUACAGGUAGCAUAGUAUUUAGUUA,1.29 ± 0.095,0.00559 ± 0.002
UCCUCGUACAGCUUGCAUAGUAUUUUGUUA,0.762 ± 0.038,0.0372 ± 0.006
UGGACCUACAGCUUGCAUAGUAUUUAGUAA,1.11 ± 0.064,0.0627 ± 0.014
UCCUGCUACUCGUUGCAUAGUAUUUAGUAA,0.153 ± 0.016,0.00287 ± 0.0029
UCCUGCUACAGCUUGCAUAGUAUUUUCUUA,0.121 ± 0.019,0.00565 ± 0.0019
UCCUGCUAGAGCUUGCAUAGUAAUUAGUUA,0.521 ± 0.043,0.0215 ± 0.0048
UGGACCUACAGCUAGCAUAGUAUUUUGUUA,0.906 ± 0.058,0.016 ± 0.0031
UCGACUUACAGCUUGCAUAGUAUUUAGUUA,1.56 ± 0.045,0.0755 ± 0.013
UCGACCUACUCCUUGCAUAGUAUUUAGUAA,0.472 ± 0.035,0.0187 ± 0.003
UCCUGGAUGAGAUUGCAUAGUAUUUAGUUA,0.117 ± 0.011,0.00369 ± 0.0027
UGGACCUACAGCUUGCAUAGUUUUUUGUUA,0.242 ± 0.017,0.031 ± 0.0082
AGGACCUACUCGUUGCAUAGUAUUUAGUAA,0.521 ± 0.038,0.0196 ± 0.0039

Sequence,pre-steady-state target cleavage rate [1],pre-steady-state target cleavage rate [2]
UCCUGCUACAGGUUGCAUAGUAUUUAGUUA,1.03 ± 0.037,0.0257 ± 0.0052
UCCUCCUACAGGUUGCAUAGAAUUUAGUUA,0.316 ± 0.03,0.0101 ± 0.0033
UCCUCCUUCAGCUUGCAUAGUAUAUAGUUA,0.666 ± 0.029,0.0172 ± 0.0034
UCCUGGUACAGCUAGCAAAGUAUUUAGUUA,0.564 ± 0.049,0.0116 ± 0.003
UCCUGGAUCAGCAUGCAUAGUAUUUAGUAA,0.658 ± 0.064,0.0057 ± 0.0025
AGGACCUACAGCUUGCAUAGGAUUUAGUUA,0.0532 ± 0.011,0.00851 ± 0.0027
UGGAGGUACAGCUUGCAUAGUAUUUACAAA,0.166 ± 0.026,0.00502 ± 0.0022
UCCUGCUCACAGCUUGCAUAGUAUUUAGUUA,1.37 ± 0.076,0.0748 ± 0.014
UCCACGUACAGCUUGCAUUGUAUUUAGUUA,0.809 ± 0.03,0.0299 ± 0.0072
UCCACCUACAGCUUGCAUAGUAAUUAGUAA,0.341 ± 0.044,0.009 ± 0.003
UCCUGGAACAGCUUGCAUAGUAUUUAGGUA,0.172 ± 0.027,0.0306 ± 0.008
UCCACCUACAGGUAGCAUAGUAUUUAGUUA,0.863 ± 0.053,0.00594 ± 0.0017
UCCUCCUACAGCUUGCAUAGUAUUUACGUUA,0.737 ± 0.031,0.0415 ± 0.007
UCGACCUACAGCUUGCAUAGUAUCUAGUUA,0.92 ± 0.048,0.0466 ± 0.0068
UCCUGGAUCUGCUUGCAUAGUAUAUAGUUA,0.267 ± 0.03,0.0131 ± 0.0052
UGGACCUACAGCUUGCAUAGUAUAUUGUUA,0.403 ± 0.04,0.0176 ± 0.0033
UCCUGGAUGAGCGUUGCAUAGUAUUUAGUUA,0.528 ± 0.055,0.0119 ± 0.0031
UGGACCUUACAGCUUGCAUAGUAUUUAGUUA,1.58 ± 0.095,0.0853 ± 0.016
UGACCUACAGCUUGCAUAGUAUUUAGUUA,1.57 ± 0.061,0.0842 ± 0.016
UCCUGGAUGAGCUUGCAUAGUAUAAUGUUA,0.282 ± 0.047,0.00928 ± 0.0031
UCCUGGUUCAGCUUGCAUAGUAUUUACAAA,0.22 ± 0.048,0.00541 ± 0.004
UGGACCUACAGCUUGCAUAGUAUUGAGUUA,0.58 ± 0.059,0.0415 ± 0.0059
UCCUGCUACAGCUUGCAUAGUAUAUACUUA,0.111 ± 0.017,0.00755 ± 0.0036
UCCUCGUACAGCUUGCAUUGUAUUUAGUUA,0.979 ± 0.036,0.0298 ± 0.0072
UCCACCUACAGCUUGCUAAGUAUUUAGUUA,0.214 ± 0.016,0.00292 ± 0.0016
UCCACCUACAGCUUGCAAAGUAUUUAGUAA,0.453 ± 0.052,0.0135 ± 0.0033
UCCUGGAUGAGCAUGCAUAGUUUUUAGUUA,0.0446 ± 0.013,0.0082 ± 0.0022
